Data published in PubChem BioAssay AID652104 (National Center for Advancing Translational Sciences (NCATS), 2013).
In all, about 410,000 compounds went through this assay and about 7,200 (1.8%) were called active. This list was built around the results that the source calls inconclusive (neither active nor inactive); the mix of calls is not that of the screen. Calls come from the whole dose curve; as a rule, active = well fitted activation curve with a large enough effect; inconclusive = small, poorly fitted or top-dose-only effect, or another doubt; inactive = no such curve, though single readings can be large or run the other way. No potency is given beside an inconclusive call; the fits are too rough.

Assay: qHTS of TDP-43 Inhibitors; note: nearly all actives have a fitted effect of over 50% in size; for growth rescue (activation): % of control where 0% means no effect
Details: TDP-43 expressing yeast growth rescue, BacTiter-Glo, 24 h; growth rescue (activation): at 46.1 µM (top of the series) unless noted
Summary of the method: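 Luminescence from BacTiter-Glo reports growth of TDP-43-expressing yeast after 24 hr at 30 deg C with compound. Cells were raffinose-pregrown to mid-log, then seeded in galactose medium at OD600=0.02.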
Potency is the fitted concentration of half-maximal effect; tags give direction and shape of the fitted curve.

SMILES	Potency	growth rescue (activation)
Fc1ccc(Nc2nc(SCc3ccccc3Cl)nc3ccccc23)cc1	inconclusive [activator, partial curve]	–
COc1cc(OC)cc(-c2c(-c3cccs3)c3cc(-c4ccc(OC)nc4)ccc3n2C)c1	inconclusive [activator, partial curve]	–
CCc1nc2ccccc2n2c(-c3ccc(C)cc3)c3c(=O)n(C)c(=O)n(C)c3c12	inconclusive [activator, single point]	–
CCOC(=O)c1ccc(CNC(=O)c2cc(C(C)(C)C)oc2C)o1	inconclusive [activator, single point]	–
COc1cccc(/C=C2\SC(=S)N(CCCC(=O)N(CCO)c3ccccc3)C2=O)c1	active: 22.4 µM	–
Cc1ccc(SC[C@H](C)CN2CC[C@H](C)CCC2=O)cc1	inconclusive [activator, partial curve]	–
COc1ccc(-n2nc3ccc(NC(=O)c4c(OC)cccc4OC)cc3n2)cc1	–	inactive: 5.31%
Cc1cc(Br)cc(C)c1NC(=O)c1sc2ncn(Cc3cccc(F)c3)c(=O)c2c1C	inconclusive [activator, partial curve, poor fit]	–
COc1cc2c(CCNC(C)=O)c[nH]c2cc1Cl	inconclusive [activator, partial curve]	–
O=S(=O)(Oc1ccc(C(=S)N2CCOCC2)cc1)c1ccc(Cl)cc1	active: 17.8 µM	–
O=C1C=C(c2ccc(Cl)cc2)C(=O)N1Nc1ccccc1	–	inconclusive: -91.1% [activator]
COC(=O)c1ccc(N2CCc3ccccc32)c([N+](=O)[O-])c1	inconclusive [activator, partial curve]	–
O=C(Nc1ccccc1)c1ccccc1Oc1ccc(C(F)(F)F)cc1[N+](=O)[O-]	active: 20 µM	–
Cc1ccccc1-c1nc2ccccc2[nH]1	–	inactive: -3.88%
COc1ccccc1NC(=O)C(=O)NCC1COc2ccccc2O1 (stereo unspecified)	inconclusive [activator, single point]	–
CCCOc1cccc(C2c3c(oc4ccc(F)cc4c3=O)C(=O)N2CCCN2CCOCC2)c1 (stereo unspecified)	–	inactive: 18%
Cc1csc(NC(=O)CSc2nc3ccccc3s2)n1	active: 25.1 µM	–
Cc1cc(/C=C2/C(=N)N3C(=NC2=O)SN=C3S(C)(=O)=O)c(C)n1-c1ccccc1F	–	inactive: -18.1%
Cc1c([C@H]2[C@@H](CC#N)C2(C)C)c2ccccc2n1C	–	inactive: 16.2%
CCN(CC)C(=O)CSc1nc2cc3c(cc2c(=O)n1Cc1ccco1)OCO3	–	inactive: -24.5%
Cc1ccc(NC(=O)c2ccc3ccccc3n2)nc1	inconclusive [activator, partial curve]	–
